Assay results as given in US11807625B2, “Capsid inhibitors for the prevention of HIV” (Gilead Sciences, Inc., priority 2019, dated 2023).
Several values for one entry are separate records, joined by “and”; a condition that tells them apart may be missing. Equal values may be shown once. The source gives many values for each of these; only a part stands here.

Assay: PK of compound of Formula (Ia) after single subcutaneous dose of solution formulations in beagle dogs
Format: in vivo
Procedure: Formulations containing the compound of Formula (Ia), or a pharmaceutically acceptable salt thereof, were prepared as solutions and optionally administered subcutaneously or intramuscularly to rats, rabbits, and/or dogs.
(§1) A solution of about 400 mg/mL of the compound of Formula (Ia) having 17.00 w/w % water, 36.40 w/w % PEG 300, 35.20 w/w % of a sodium salt of a compound of Formula (Ia), 5.00 w/w % ethanol, and 6.40 w/w % poloxamer 188 was prepared. The solution was administered subcutaneously to male beagle dogs at a dose level of about 12 mg/kg and male Wistar Han rats at a dose level of about 50 mg/kg. The pharmacokinetic profiles were determined, and the results for dogs are summarized in Table and Table, while the results for rats are summarized in Table and Table below.
as §1, with “500” for “400”, “14.06” for “17.00”, “30.12” for “36.40”
A solution of about 300 mg/mL of the compound of Formula (Ia) having 23.33 w/w % water, 48.99 w/w % PEG 300, 26.47 w/w % of a sodium salt of a compound of Formula (Ia), and 1.21 w/w % poloxamer 188 was prepared. The solution was administered subcutaneously to male beagle dogs at a dose level of about 6 mg/kg and male Wistar Han rats at a dose level of about 50 mg/kg. The pharmacokinetic profiles were determined, and the results for dogs are summarized in Table and Table, while the results for rats are summarized in Table and Table below.
as §1, with “18.80” for “17.00”, “40.25” for “36.40”, “34.38” for “35.20”, “1.57” for “6.40”
as §1, with “500” for “400”, “16.29” for “17.00”, “34.88” for “36.40”, “41.92” for “35.20”, “1.91” for “6.40”
as §1, with “20.90” for “17.00”, “44.72” for “36.40”, “and 34.38” for “35.20”, “(Ia)” for “(Ia), 5.00 w/w % ethanol, and 6.40 w/w % poloxamer 188”
A solution of about 400 mg/mL of the compound of Formula (Ia) having 19.90 w/w % water, 42.59 w/w % PEG 300, 34.38 w/w % of a sodium salt of a compound of Formula (Ia), and 3.13 w/w % poloxamer 188 was prepared. The solution was administered subcutaneously to male beagle dogs at a dose level of about 12 mg/kg and male Wistar Han rats at a dose level of about 50 mg/kg. […]

Plasma concentration (336 h, individual dogs, SC 6 mg/kg, solution V, 300 mg/mL, 6 mg/kg): 125 nM and 164 nM | Plasma concentration (504 h, individual dogs, SC 6 mg/kg, solution V, 300 mg/mL, 6 mg/kg): 179 nM and 151 nM | Plasma concentration (672 h, individual dogs, SC 6 mg/kg, solution V, 300 mg/mL, 6 mg/kg): 135 nM | Plasma concentration (840 h, individual dogs, SC 6 mg/kg, solution V, 300 mg/mL, 6 mg/kg): 51.7 nM and 71.6 nM | Plasma concentration (1008 h, individual dogs, SC 6 mg/kg, solution V, 300 mg/mL, 6 mg/kg): 32.0 nM and 29.6 nM | Plasma concentration (1344 h, individual dogs, SC 6 mg/kg, solution V, 300 mg/mL, 6 mg/kg): 22.1 nM and 22.5 nM | Plasma concentration (1680 h, individual dogs, SC 6 mg/kg, solution V, 300 mg/mL, 6 mg/kg): 9.9 nM and 13.4 nM | Plasma concentration (2016 h, individual dogs, SC 6 mg/kg, solution V, 300 mg/mL, 6 mg/kg): 8.9 nM and 5.4 nM and 11.1 nM | Plasma concentration (2352 h, individual dogs, SC 6 mg/kg, solution V, 300 mg/mL, 6 mg/kg): 4.2 nM and 5.4 nM | Plasma concentration (2688 h, individual dogs, SC 6 mg/kg, solution V, 300 mg/mL, 6 mg/kg): 2.0 nM and 4.0 nM | Plasma concentration (3024 h, individual dogs, SC 6 mg/kg, solution V, 300 mg/mL, 6 mg/kg): 1.6 nM and 2.9 nM | Plasma concentration (3360 h, individual dogs, SC 6 mg/kg, solution V, 300 mg/mL, 6 mg/kg): 1.3 nM and 1.2 nM | Plasma concentration (beagle dogs, SC 12 mg/kg, 400 mg/mL solution AA (6.25% poloxamer 188), 24.0 h, animals #1-#3, 12 mg/kg): 98.3 nM and 187 nM | Plasma concentration (beagle dogs, SC 12 mg/kg, 400 mg/mL solution AA (6.25% poloxamer 188), 48.0 h, animals #1-#3, 12 mg/kg): 148 nM and 194 nM | Plasma concentration (beagle dogs, SC 12 mg/kg, 400 mg/mL solution AA (6.25% poloxamer 188), 96.0 h, animals #1-#3, 12 mg/kg): 141 nM and 258 nM | Plasma concentration (beagle dogs, SC 12 mg/kg, 400 mg/mL solution AA (6.25% poloxamer 188), 168 h, animals #1-#3, 12 mg/kg): 88.7 nM and 108 nM | Plasma concentration (beagle dogs, SC 12 mg/kg, 400 mg/mL solution AA (6.25% poloxamer 188), 336 h, animals #1-#3, 12 mg/kg): 147 nM | Plasma concentration (beagle dogs, SC 12 mg/kg, 400 mg/mL solution AA (6.25% poloxamer 188), 504 h, animals #1-#3, 12 mg/kg): 202 nM and 105 nM | Plasma concentration (beagle dogs, SC 12 mg/kg, 400 mg/mL solution AA (6.25% poloxamer 188), 672 h, animals #1-#3, 12 mg/kg): 161 nM and 232 nM | Plasma concentration (beagle dogs, SC 12 mg/kg, 400 mg/mL solution AA (6.25% poloxamer 188), 840 h, animals #1-#3, 12 mg/kg): 99.7 nM and 124 nM | Plasma concentration (beagle dogs, SC 12 mg/kg, 400 mg/mL solution AA (6.25% poloxamer 188), 1008 h, animals #1-#3, 12 mg/kg): 84.5 nM and 94.2 nM | Plasma concentration (beagle dogs, SC 12 mg/kg, 400 mg/mL solution AA (6.25% poloxamer 188), 1334 h, animals #1-#3, 12 mg/kg): 54.6 nM and 52.4 nM | Plasma concentration (beagle dogs, SC 12 mg/kg, 400 mg/mL solution AA (6.25% poloxamer 188), 1680 h, animals #1-#3, 12 mg/kg): 26.5 nM and 33.5 nM | Plasma concentration (beagle dogs, SC 12 mg/kg, 400 mg/mL solution AA (6.25% poloxamer 188), 2016 h, animals #1-#3, 12 mg/kg): 18.6 nM and 17.4 nM | Plasma concentration (beagle dogs, SC 12 mg/kg, 400 mg/mL solution W (5.00% ethanol, 1.57% poloxamer 188), 3.00 h, animals #1-#3, 12 mg/kg): 2.80 nM and 5.26 nM | Plasma concentration (beagle dogs, SC 12 mg/kg, 400 mg/mL solution W (5.00% ethanol, 1.57% poloxamer 188), 24.0 h, animals #1-#3, 12 mg/kg): 27.0 nM and 50.9 nM | Plasma concentration (beagle dogs, SC 12 mg/kg, 400 mg/mL solution W (5.00% ethanol, 1.57% poloxamer 188), 1008 h, animals #1-#3, 12 mg/kg): 55.3 nM and 79.1 nM | Plasma concentration (beagle dogs, SC 12 mg/kg, 400 mg/mL solution W (5.00% ethanol, 1.57% poloxamer 188), 1344 h, animals #1-#3, 12 mg/kg): 105 nM and 64.9 nM | Plasma concentration (beagle dogs, SC 12 mg/kg, 400 mg/mL solution W (5.00% ethanol, 1.57% poloxamer 188), 1680 h, animals #1-#3, 12 mg/kg): 42.5 nM and 33.3 nM | Plasma concentration (beagle dogs, SC 12 mg/kg, 400 mg/mL solution W (5.00% ethanol, 1.57% poloxamer 188), 2016 h, animals #1-#3, 12 mg/kg): 46.8 nM and 33.3 nM | Plasma concentration (beagle dogs, SC 12 mg/kg, 400 mg/mL solution W (5.00% ethanol, 1.57% poloxamer 188), 2352 h, animals #1-#3, 12 mg/kg): 29.2 nM and 19.7 nM | Plasma concentration (beagle dogs, SC 12 mg/kg, 400 mg/mL solution W (5.00% ethanol, 1.57% poloxamer 188), 2688 h, animals #1-#3, 12 mg/kg): 18.3 nM and 11.6 nM | Plasma concentration (beagle dogs, SC 12 mg/kg, 400 mg/mL solution W (5.00% ethanol, 1.57% poloxamer 188), 3024 h, animals #1-#3, 12 mg/kg): 14.8 nM and 8.8 nM | Plasma concentration (beagle dogs, SC 12 mg/kg, 400 mg/mL solution W (5.00% ethanol, 1.57% poloxamer 188), 3360 h, animals #1-#3, 12 mg/kg): 10.0 nM and 5.4 nM | Plasma concentration (beagle dogs, SC 12 mg/kg, 400 mg/mL solution Y (water, PEG 300), 72.0 h, animals #1-#3, 12 mg/kg): 60.2 nM and 41.7 nM | Plasma concentration (beagle dogs, SC 12 mg/kg, 400 mg/mL solution Y (water, PEG 300), 96.0 h, animals #1-#3, 12 mg/kg): 61.3 nM and 40.0 nM | Plasma concentration (beagle dogs, SC 12 mg/kg, 400 mg/mL solution Y (water, PEG 300), 168 h, animals #1-#3, 12 mg/kg): 49.2 nM and 53.1 nM | Plasma concentration (beagle dogs, SC 12 mg/kg, 400 mg/mL solution Y (water, PEG 300), 336 h, animals #1-#3, 12 mg/kg): 145 nM and 185 nM | Plasma concentration (beagle dogs, SC 12 mg/kg, 400 mg/mL solution Y (water, PEG 300), 504 h, animals #1-#3, 12 mg/kg): 230 nM and 267 nM | Plasma concentration (beagle dogs, SC 12 mg/kg, 400 mg/mL solution Y (water, PEG 300), 672 h, animals #1-#3, 12 mg/kg): 182 nM and 204 nM | Plasma concentration (beagle dogs, SC 12 mg/kg, 400 mg/mL solution Y (water, PEG 300), 840 h, animals #1-#3, 12 mg/kg): 116 nM and 118 nM | Plasma concentration (beagle dogs, SC 12 mg/kg, 400 mg/mL solution Y (water, PEG 300), 1008 h, animals #1-#3, 12 mg/kg): 83.6 nM and 84.7 nM | Plasma concentration (beagle dogs, SC 12 mg/kg, 400 mg/mL solution Y (water, PEG 300), 1334 h, animals #1-#3, 12 mg/kg): 49.0 nM and 55.0 nM | Plasma concentration (beagle dogs, SC 12 mg/kg, 400 mg/mL solution Y (water, PEG 300), 1680 h, animals #1-#3, 12 mg/kg): 26.1 nM and 32.0 nM | Plasma concentration (beagle dogs, SC 12 mg/kg, 400 mg/mL solution Y (water, PEG 300), 2016 h, animals #1-#3, 12 mg/kg): 16.0 nM and 22.2 nM | Plasma concentration (beagle dogs, SC 12 mg/kg, 400 mg/mL solution Y (water, PEG 300), 2352 h, animals #1-#3, 12 mg/kg): 14.0 nM | Plasma concentration (beagle dogs, SC 12 mg/kg, 400 mg/mL solution Y (water, PEG 300), 2688 h, animals #1-#3, 12 mg/kg): 10.3 nM and 9.88 nM | Plasma concentration (beagle dogs, SC 12 mg/kg, 400 mg/mL solution Y (water, PEG 300), 3024 h, animals #1-#3, 12 mg/kg): 6.06 nM and 6.84 nM | Plasma concentration (beagle dogs, SC 12 mg/kg, 400 mg/mL solution Z (3.13% poloxamer 188), 72.0 h, animals #1-#3, 12 mg/kg): 46.5 nM and 59.0 nM | Plasma concentration (beagle dogs, SC 12 mg/kg, 400 mg/mL solution Z (3.13% poloxamer 188), 504 h, animals #1-#3, 12 mg/kg): 162 nM and 221 nM | Plasma concentration (beagle dogs, SC 12 mg/kg, 400 mg/mL solution Z (3.13% poloxamer 188), 672 h, animals #1-#3, 12 mg/kg): 133 nM and 75.2 nM | Plasma concentration (beagle dogs, SC 12 mg/kg, 400 mg/mL solution Z (3.13% poloxamer 188), 840 h, animals #1-#3, 12 mg/kg): 112 nM and 68.2 nM | Plasma concentration (beagle dogs, SC 12 mg/kg, 400 mg/mL solution Z (3.13% poloxamer 188), 1008 h, animals #1-#3, 12 mg/kg): 83.7 nM and 62.8 nM | Plasma concentration (beagle dogs, SC 12 mg/kg, 400 mg/mL solution Z (3.13% poloxamer 188), 1334 h, animals #1-#3, 12 mg/kg): 52.8 nM and 46.1 nM | Plasma concentration (beagle dogs, SC 12 mg/kg, 400 mg/mL solution Z (3.13% poloxamer 188), 3024 h, animals #1-#3, 12 mg/kg): 6.54 nM and 6.65 nM | Plasma concentration (beagle dogs, SC 12 mg/kg, 500 mg/mL solution X (5.00% ethanol, 1.91% poloxamer 188), 3.00 h, animals #1-#3, 12 mg/kg): 16.3 nM and 9.86 nM | Plasma concentration (beagle dogs, SC 12 mg/kg, 500 mg/mL solution X (5.00% ethanol, 1.91% poloxamer 188), 8.00 h, animals #1-#3, 12 mg/kg): 34.2 nM and 21.8 nM | Plasma concentration (beagle dogs, SC 12 mg/kg, 500 mg/mL solution X (5.00% ethanol, 1.91% poloxamer 188), 24.0 h, animals #1-#3, 12 mg/kg): 51.1 nM and 35.2 nM | Plasma concentration (beagle dogs, SC 12 mg/kg, 500 mg/mL solution X (5.00% ethanol, 1.91% poloxamer 188), 48.0 h, animals #1-#3, 12 mg/kg): 59.5 nM and 34.8 nM | Plasma concentration (beagle dogs, SC 12 mg/kg, 500 mg/mL solution X (5.00% ethanol, 1.91% poloxamer 188), 72.0 h, animals #1-#3, 12 mg/kg): 33.0 nM and 54.0 nM
SMILES: CC(C)(C#Cc1ccc(-c2ccc(Cl)c3c(NS(C)(=O)=O)nn(CC(F)(F)F)c23)c([C@H](Cc2cc(F)cc(F)c2)NC(=O)Cn2nc(C(F)(F)F)c3c2C(F)(F)[C@@H]2C[C@H]32)n1)S(C)(=O)=O [compound of Formula (Ia)]
